Experimental data from PMC10726135.
The other results are listed elsewhere or left out. At the low end of the ranking the order means little. The protein was read in a cell extract, so binding may be indirect.

target: T1, HNF4alpha8 (COS-7 nuclear extract) (UniProt P41235-5); assay: protein-binding microarray; conditions: COS-7 nuclear extract on double-stranded Agilent 4x180k PBM; binding buffer, salt, pH and temperature not given; high values mean tight binding; double strand, one strand shown; sequences stand for … in …GCCTAGGGAGATTAGAGTATCGGTCGA
T1 sequence: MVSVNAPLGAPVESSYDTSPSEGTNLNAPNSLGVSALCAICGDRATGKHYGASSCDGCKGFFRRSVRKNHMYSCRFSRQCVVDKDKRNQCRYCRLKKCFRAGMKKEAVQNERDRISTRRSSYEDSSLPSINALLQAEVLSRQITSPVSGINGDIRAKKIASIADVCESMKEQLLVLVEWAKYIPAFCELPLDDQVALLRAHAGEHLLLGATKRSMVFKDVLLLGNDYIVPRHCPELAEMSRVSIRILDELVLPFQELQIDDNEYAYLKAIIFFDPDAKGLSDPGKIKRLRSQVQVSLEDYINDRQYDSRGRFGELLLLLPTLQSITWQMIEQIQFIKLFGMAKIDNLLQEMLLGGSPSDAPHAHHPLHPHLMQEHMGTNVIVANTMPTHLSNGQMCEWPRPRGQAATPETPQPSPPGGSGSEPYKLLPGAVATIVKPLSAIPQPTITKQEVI

Row | Sequence | binding signal (log2 normalized intensity)
1 | CTTTTCTTCCCCCCTCCCTCCGCAACCTTT | 5.88
2 | CAGGGTGACGTCATTGGAAATCCGAAATAA | -0.182
3 | TTAGTCCCTAAGTCTTTCAAAGAAAAGCCT | -0.975
4 | GTCCAGCCACAATTAATGTACCCCCGGAAA | 4.46
5 | TCAAATGCAAAGGCAAACAGATGAAGTACT | -1.37
6 | CACCTGGCCAGCGACTTTAGGGGCCAAGGG | 0.115
7 | TCTTCCCATCTAACTGCCCCTGATATCTGA | 3.01
8 | TGAGGTAGTTGAGTGCCTCCATTTCACAAA | -1.13
9 | AGGTGGAGATAAGGAATTTGTTAAGAACTG | -1.17
10 | CTGCCGAGGTGTCCTGTAAATAGTGTGTCA | 1.42
11 | CTTCCAGGGAATAAAGAACTCTAAGCAGCG | -1.26
12 | CCTCAATGTTTACACTTCCATGTTTGTCTT | 1.7
13 | GGAGATGCCGTTAAGCAGATAAGGTGCGGG | -1.35
14 | TGAATATGTACATGGACTTTGAACCAAGAT | 8.87
15 | ATATTCAAACAGGTCAAGCAATGCTGGGGA | -0.636
16 | GGCAAAGGGCAAGGCGTCTCTGCCAAGGGG | -1.41
17 | AAGCTTCACTGACATTCCAGCCACTAAGAA | -1.36
18 | CAAATTCCTCAATCCAGTCATCTCACACAA | -1.13
19 | GGTTGGGGCCTCCCTCCGTGGGGCTCCTTT | -1.18
20 | GCCATTCCAGAAGTAGGATGGGGAGGGGGC | -1.32
21 | CAAGCCAGTTTCCAGGGAGGAGAGAAGGGC | -1.26
22 | GATTAAACTTTAGTCAGATTCCTCTGAGTC | 1.57
23 | TTTCTTAATTGCCCTTTGCCCTTTGCCCAA | 8.84
24 | ATAACTTCAAGGAGCTCGGCGCCAGGAAGC | -1.28

Row | Sequence | binding signal (log2 normalized intensity)
25 | GGATAATGGAGAAGATAAGCAGATCTTTAG | -1.43
26 | GTGTGACCAAGGACAAACTGAGGAGGACAT | -1.24
27 | CTGGTTCTGCAAGGCAACTGACCTTTGGAT | 8.71
28 | CTGTCCCTACTCAATTATCACCACACAGCA | -1.27
29 | TGCAAGGGAGACCAGGAAAGTGAATATCTG | -1.35
30 | AACCCATTTGTTAGTCTCTGGGCCTCCCCA | 1.62
31 | GTTTGCAGGGACAATGGATGGAACGTGGAC | 1.19
32 | TGACGTCATTGGAAATCCGAAATAAACTGA | -1.27
33 | GAGGAGAGAGTAAATAATTGATGAAACAGG | -1.14
34 | AAGAGCCAAAATGTGTTAGGCAAGCAAACT | -1.25
35 | CATTGAGTCCACTGAGATCACTTGGGGTAA | 0.837
36 | ATCCACTCAGTATGGCAACCTTTGTCCTGC | 5.46
37 | AACATGTAATTGCATGACCAAGTTGTATCA | 1.26
38 | TGCCCAACCTTTGCCCCTGGAGGGAGACAT | 4.02
39 | TAACTTCCGGCTGGCCTTCCCTCCTCCCTC | 2.13
40 | GACAACATCTGGTGTGGTTAATGATTATGC | 0.968
41 | CGTGGAAAGTGGAAGAATGGGAAATTCCAT | -1.38
42 | CATCATCTTGTAATCTGCTTCCAGTTCCAT | 0.387
43 | TTTTGTTCAATATGCTGAAGTCCAACTGCT | 2.07
44 | AGCTCCAAAAGGTGGACAAGACTGGTTTTT | 0.215
45 | GAAAGTACACAGTGCCTGCTTGCAGATAAA | -1.42
46 | ATTCCCCTTTGTCTAAGCTAGTCATAGCTG | -0.154
47 | TTTGAACACCTCTTCTTTCTTCTCTGGTAC | 1.8
48 | GCTTCTGTACCTTTGACTATGGGCATGAAG | 1.24

Row | Sequence | binding signal (log2 normalized intensity)
49 | GTCTAGGTTCTGGGGTGATTACCCTTATCT | 1.61
50 | CCTACCAGTATGCAATGTTAGTCTGGGAAA | -0.0207
51 | CAATAAGCAATACATTGAACTTTGAACACC | 7.99
52 | GAATTCAAAGGTGCAAAGGTTAAAATGCCC | 4.97
53 | GTAAACCCCAATCAGGTTTCTCAAGTGATC | 1.52
54 | GCAGAGGCTGGAGCAGGCCATGTGCAGAGG | -1.34
55 | AGGAGGAGAAGGGTGGGAATTGGGATAGCA | -1.3
56 | ACCTGTGTGTGTAGGCATAGGAGAAACACA | 0.101
57 | AAGGTATGGAGCTAAACAATTAAAGAACTC | -1.32
58 | AATGCGCCTGAACTGACTGCATTCCCTTTC | -1.05
59 | CTGAAATAGGTAAGCTGGCCCGGGAAGAAG | -0.605
60 | ACAAACCAGCTTTGAGATGATAAAAATTTG | -1.26
61 | ATGATACGCCGGCCAATCCGGCTGGCAGCC | -1.41
62 | AGAACACGGAGTCCTTCTGGGGCTAGGTTT | 0.403
63 | TCCAGATTAGAGCACAATGTGGGGAGCACA | -0.575
64 | GATTAATTACCCACAGGTGTGTTGACTCAA | 0.511
65 | GTTCTATGGGATGACCTTTGAGCAATAGGA | 6.05
66 | AAAATGAAAGCAAGGGCCAGATCAAAGGCT | -1.37
67 | TGCTGACTTTCTGTGTCTTGGCAGTGATCA | 1.88
68 | TCACGAAAGGCAACATCTTGAGCCAGGAAT | -1.34
69 | ACGGAGAATGTAGACCTTTACCACCCTCAC | 1.14
70 | ATTTCTCAGGAAGTGCTTGTTCCCTCCATC | 0.377
71 | AGTGCAAGGGAGAAATTGCGCTAACCAGAT | -1.29
72 | ACATCTCTCTCTGCAGCTGAGTAGAGGAAA | -1.01

Row | Sequence | binding signal (log2 normalized intensity)
73 | CCTAGCAACCTCCACATTGCAACAATGTCC | -0.718
74 | CAGATAACAGCGAACATGAGGAATAAACTT | -1.43
75 | GCTGAAAACTATGCATGCTGTGTGTGTGTG | 2.21
76 | TTGACCCCTTGGCCCCGCTGTCCTGATCCC | 4.66
77 | CTCTGCACACACAGACATAAACACAGACAC | -1.3
78 | GGCCCATTTTCCCATGGTCTGTAGAAGGCG | 0.0788
79 | CTCTTCCCAACTTGGCCTCAATGTTTACAC | 0.841
80 | GCTCTGGTTCAAACAAGGCCAAAGTCTGGC | 2.66
81 | TATCTGACTGATGCTAAAGTCTACATTCTA | 1.25
82 | TTGTAGCCTCATTTCACCTTTGGTCTTTGG | 5.52
83 | TTCTGATAAGAGCATTTTTGTATGCATAAG | 0.847
84 | GCGCGCTGGGAAGGCTCGTTCTCGCGAGAG | -1.27
85 | CAGTAGGTCAGTGTCCCTCTTATACTCTCT | 0.12
86 | ATGGGAAGCTTCACAAAGGGCTGAGGTTAA | -1.06
87 | CTCATCCTGTGACCAAGAATGCCTAACCTC | -1.38
88 | ATTAAGCTGAGGCAGAGTTGTTTGCAGAGG | 0.266
89 | TCTGTACGGAAGGCCGGGCCTCAAGGGAAT | -1.32
90 | CATTGCAAAATCCATCTAAATGGCAATGGC | -1.28
91 | AAGGGACAAAACTTCAAAGCCCCTGAGGCC | -1.19
92 | TTTTTCATGCAAATTTCCGTGTCGAAACTA | -0.73
93 | GAAAAGAGGAAAACCAGCTCAGTGGAAATT | -1.42
